US20260216242A1 (ALMAC DISCOVERY, published 2026)
Values belong to the binder of their own block, whether it stands above or below them.

What was measured:
[1] = molecular target: human ALPP expressed on CHO cells (CHO-ALPP) (human, UniProt P05187 23-506); experiment: cell-based or functional assay
[2] = molecular target: human ALPPL2 expressed on CHO cells (CHO-ALPPL2) (human, UniProt P10696 20-503); experiment: cell-based or functional assay
[3] = molecular target: T1, human ALPI expressed on CHO cells (CHO-ALPI) (human, UniProt P09923 20-503); experiment: cell-based or functional assay
T1 sequence (looked up): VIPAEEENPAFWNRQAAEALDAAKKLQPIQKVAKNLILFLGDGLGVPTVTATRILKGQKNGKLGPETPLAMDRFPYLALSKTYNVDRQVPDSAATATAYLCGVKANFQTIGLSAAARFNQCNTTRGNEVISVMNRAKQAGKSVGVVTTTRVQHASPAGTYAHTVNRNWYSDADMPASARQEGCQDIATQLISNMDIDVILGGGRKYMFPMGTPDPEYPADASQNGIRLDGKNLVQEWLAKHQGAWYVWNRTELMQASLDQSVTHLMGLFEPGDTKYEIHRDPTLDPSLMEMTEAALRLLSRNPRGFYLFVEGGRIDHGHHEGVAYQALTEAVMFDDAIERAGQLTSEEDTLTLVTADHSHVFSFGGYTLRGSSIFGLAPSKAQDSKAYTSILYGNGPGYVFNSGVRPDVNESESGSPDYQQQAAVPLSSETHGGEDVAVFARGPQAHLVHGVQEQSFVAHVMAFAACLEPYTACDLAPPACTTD

[4] = molecular target: T2, human ALPL expressed on CHO cells (CHO-ALPL) (human, UniProt P05186 18-501); experiment: cell-based or functional assay
T2 sequence (looked up): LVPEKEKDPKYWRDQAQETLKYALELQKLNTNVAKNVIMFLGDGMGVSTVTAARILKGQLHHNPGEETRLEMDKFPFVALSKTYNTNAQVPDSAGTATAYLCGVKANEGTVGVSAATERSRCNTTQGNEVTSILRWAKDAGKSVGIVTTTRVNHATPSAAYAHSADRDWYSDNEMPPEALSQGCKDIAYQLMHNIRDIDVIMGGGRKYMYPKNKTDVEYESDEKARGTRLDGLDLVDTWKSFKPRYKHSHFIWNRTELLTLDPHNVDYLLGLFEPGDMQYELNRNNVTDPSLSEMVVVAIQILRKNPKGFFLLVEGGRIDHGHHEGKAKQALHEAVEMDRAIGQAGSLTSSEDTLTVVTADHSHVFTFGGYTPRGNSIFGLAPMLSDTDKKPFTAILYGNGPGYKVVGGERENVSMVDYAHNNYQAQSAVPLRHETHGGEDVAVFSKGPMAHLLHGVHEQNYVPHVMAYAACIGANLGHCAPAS

[5] = molecular target: T3, Human ALPL (leucine zipper) (human); experiment: BLI
T3 construct: Soluble human ALPL fused to a disulphide stabilised leucine zipper and a His tag; also called hALPL; TNAP
T3 chain: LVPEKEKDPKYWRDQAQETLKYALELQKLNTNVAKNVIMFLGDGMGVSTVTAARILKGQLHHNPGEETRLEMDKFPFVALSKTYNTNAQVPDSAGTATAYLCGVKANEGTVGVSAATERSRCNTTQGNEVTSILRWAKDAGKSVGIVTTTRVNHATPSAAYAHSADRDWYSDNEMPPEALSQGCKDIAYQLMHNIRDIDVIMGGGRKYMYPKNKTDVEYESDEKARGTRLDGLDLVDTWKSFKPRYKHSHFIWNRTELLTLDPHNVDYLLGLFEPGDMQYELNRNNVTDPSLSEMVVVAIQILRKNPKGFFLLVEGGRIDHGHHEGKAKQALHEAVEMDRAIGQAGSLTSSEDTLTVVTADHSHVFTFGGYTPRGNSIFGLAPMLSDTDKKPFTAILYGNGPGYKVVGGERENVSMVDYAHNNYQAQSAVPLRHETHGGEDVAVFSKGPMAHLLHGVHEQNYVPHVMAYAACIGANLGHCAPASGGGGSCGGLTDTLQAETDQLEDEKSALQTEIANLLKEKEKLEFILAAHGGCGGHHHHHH
Protocol: (§1) Binding kinetics were determined using the Biolayer Interferometry (BLI) Octet K2 or R4 system (Sartorius). […] For KD apparent measurements, the ALPP proteins were immobilised in sodium acetate pH5 buffer to AR2G sensors using amine coupling. To measure 1:1 interactions, AHC biosensors were used to immobilise Fc-fused proteins. All assays were conducted in HBS-EP with a plate temperature of 25° C. Ka (M⁻¹s⁻¹), Kd (s⁻¹) and KD (nM) values were determined using Octet Data Analysis High Throughput software (Sartorius) for Biolayer Interferometry.

[6] = molecular target: T4, Human ALPP (leucine zipper) (human); experiment: BLI, KD 1:1 (Fc fusion captured on AHC sensor)
T4 construct: Soluble human ALPP fused to a disulphide stabilised leucine zipper and a His tag; The whole entry is the construct; also called hALPP; PLAP
T4 chain: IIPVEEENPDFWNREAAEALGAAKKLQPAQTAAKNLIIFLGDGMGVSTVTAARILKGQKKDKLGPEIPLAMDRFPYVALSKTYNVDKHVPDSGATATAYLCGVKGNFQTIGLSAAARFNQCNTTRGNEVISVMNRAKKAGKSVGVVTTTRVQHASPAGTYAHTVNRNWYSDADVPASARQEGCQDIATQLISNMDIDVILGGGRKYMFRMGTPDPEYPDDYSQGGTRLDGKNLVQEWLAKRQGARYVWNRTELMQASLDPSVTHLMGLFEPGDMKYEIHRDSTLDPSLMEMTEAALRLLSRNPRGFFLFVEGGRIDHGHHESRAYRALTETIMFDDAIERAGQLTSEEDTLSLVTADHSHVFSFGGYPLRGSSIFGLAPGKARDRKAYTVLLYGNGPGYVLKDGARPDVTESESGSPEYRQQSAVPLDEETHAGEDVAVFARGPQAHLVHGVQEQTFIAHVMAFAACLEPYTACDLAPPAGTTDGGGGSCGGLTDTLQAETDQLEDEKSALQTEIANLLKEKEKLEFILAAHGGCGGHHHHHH
Protocol: as §1

[7] = molecular target: T5, Human ALPPL2 (leucine zipper) (human); experiment: BLI, KD 1:1 (Fc fusion captured on AHC sensor)
T5 construct: Soluble human ALPPL2 fused to a disulphide stabilised leucine zipper and a His tag; The whole entry is the construct; also called hALPPL2; ALPG
T5 chain: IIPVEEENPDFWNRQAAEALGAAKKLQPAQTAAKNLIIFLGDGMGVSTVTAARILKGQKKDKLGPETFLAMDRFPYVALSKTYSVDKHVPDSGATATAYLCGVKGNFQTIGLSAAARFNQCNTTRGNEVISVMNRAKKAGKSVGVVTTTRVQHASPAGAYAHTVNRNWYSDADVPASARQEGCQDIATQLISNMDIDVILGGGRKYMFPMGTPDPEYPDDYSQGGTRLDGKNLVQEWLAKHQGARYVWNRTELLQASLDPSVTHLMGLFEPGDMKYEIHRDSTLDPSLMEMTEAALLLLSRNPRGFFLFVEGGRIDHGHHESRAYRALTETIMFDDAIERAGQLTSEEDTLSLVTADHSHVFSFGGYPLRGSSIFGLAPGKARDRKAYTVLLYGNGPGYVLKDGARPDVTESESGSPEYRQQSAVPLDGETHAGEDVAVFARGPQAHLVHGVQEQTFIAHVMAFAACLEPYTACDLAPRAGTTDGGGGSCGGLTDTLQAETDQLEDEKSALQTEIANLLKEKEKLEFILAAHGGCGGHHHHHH
Protocol: as §1

[8] = molecular target: T4, Human ALPP (leucine zipper); experiment: BLI, KD app (antigen immobilised on AR2G sensor)
Protocol: as §1

[9] = molecular target: T5, Human ALPPL2 (leucine zipper); experiment: BLI, KD app (antigen immobilised on AR2G sensor)
Protocol: as §1

B1: D10 linker Cys-hFc-vcPAB-MMAE (S442C) (Fc fusion)
chain: QVQLVESGGGLVQPGGSLRLSCAASGSIFSVNTMGWYRQAPGKQRDLVAVATSGGTIHYADSVKGRFTISRDNAKNTVYLQMNSLKPEDTAVYYCNLVVPYGMIAGDHDYWGQGTKVTVSSGCGGSGGGGSGGGGS[human IgG1 Fc with changes not spelt out]
modifications: MC-vc-PAB-MMAE on the linker Cys and on Cys 442 (S442C, EU numbering); DAR 4.1
cell killing IC50 @ 96 h, CHO-ALPP cells (Cell Titre Glo) [1]: 36.9 nM
cell killing IC50 @ 96 h, CHO-ALPPL2 cells (Cell Titre Glo) [2]: 52.2 nM
cell killing IC50 @ 96 h, CHO-ALPI cells (Cell Titre Glo) [3]: > 664 nM
cell killing IC50 @ 96 h, CHO-ALPL cells (Cell Titre Glo) [4]: > 664 nM

B2: D10-hFc (S239C)-MA-PEG4-vc-PAB-EDA-PNU159682 (Fc fusion)
chain: QVQLVESGGGLVQPGGSLRLSCAASGSIFSVNTMGWYRQAPGKQRDLVAVATSGGTIHYADSVKGRFTISRDNAKNTVYLQMNSLKPEDTAVYYCNLVVPYGMIAGDHDYWGQGTKVTVSSGGGGSGGGGSGGGGS[human IgG1 Fc with changes not spelt out]
modifications: MA-PEG4-vc-PAB-EDA-PNU159682 on Cys 239 (S239C, EU numbering); DAR 2
cell killing IC50 @ 96 h, CHO-ALPP cells (Cell Titre Glo) [1]: 6.2 nM
cell killing IC50 @ 96 h, CHO-ALPPL2 cells (Cell Titre Glo) [2]: 79.9 nM
cell killing IC50 @ 96 h, CHO-ALPI cells (Cell Titre Glo) [3]: 798 nM
cell killing IC50 @ 96 h, CHO-ALPL cells (Cell Titre Glo) [4]: > 1000 nM

B3: A06-hFc (S239C)-MA-PEG4-vc-PAB-EDA-PNU159682 (Fc fusion)
chain: QVHLVESGGGLVQAGGSLRLSCAASGRTFLSMGWFRQAPGKEREFVAAISWTGGSTGYADSVKGRFTISRESDKETMYLQMNSLKPEDTAVYYCAARGDVYYGGDDATRYKYWGQGTQVTVSSGGGGSGGGGSGGGGS[human IgG1 Fc with changes not spelt out]
modifications: MA-PEG4-vc-PAB-EDA-PNU159682 on Cys 239 (S239C, EU numbering); DAR 1.93
cell killing IC50 @ 96 h, CHO-ALPP cells (Cell Titre Glo) [1]: 64.1 nM
cell killing IC50 @ 96 h, CHO-ALPPL2 cells (Cell Titre Glo) [2]: 148 nM
cell killing IC50 @ 96 h, CHO-ALPI cells (Cell Titre Glo) [3]: 883 nM
cell killing IC50 @ 96 h, CHO-ALPL cells (Cell Titre Glo) [4]: > 1000 nM

B4: E06-hFc (S239C)-MA-PEG4-vc-PAB-EDA-PNU159682 (Fc fusion)
chain: QVHLVESGGGLVQAGGSLRLSCAASRRSFSEYAMGWFRQAPGKEREFVAAIGWSGVIEYADSVKGRFTISRDNAKDTVYLQMNSLKPEDTAVYYCAAGLGIRVVSQTPAYWGQGTQVTVSSGGGGSGGGGSGGGGS[human IgG1 Fc with changes not spelt out]
modifications: MA-PEG4-vc-PAB-EDA-PNU159682 on Cys 239 (S239C, EU numbering); DAR 1.97
cell killing IC50 @ 96 h, CHO-ALPP cells (Cell Titre Glo) [1]: 9.8 nM
cell killing IC50 @ 96 h, CHO-ALPPL2 cells (Cell Titre Glo) [2]: 19.8 nM
cell killing IC50 @ 96 h, CHO-ALPI cells (Cell Titre Glo) [3]: 752 nM
cell killing IC50 @ 96 h, CHO-ALPL cells (Cell Titre Glo) [4]: > 1000 nM

B5: E06 linker Cys-hFc-vcPAB-MMAE (S442C) (Fc fusion)
chain: QVHLVESGGGLVQAGGSLRLSCAASRRSFSEYAMGWFRQAPGKEREFVAAIGWSGVIEYADSVKGRFTISRDNAKDTVYLQMNSLKPEDTAVYYCAAGLGIRVVSQTPAYWGQGTQVTVSSGCGGSGGGGSGGGGS[human IgG1 Fc with changes not spelt out]
modifications: MC-vc-PAB-MMAE on the linker Cys and on Cys 442 (S442C, EU numbering); DAR 4.1
cell killing IC50 @ 96 h, CHO-ALPP cells (Cell Titre Glo) [1]: 56.7 nM
cell killing IC50 @ 96 h, CHO-ALPPL2 cells (Cell Titre Glo) [2]: 43.7 nM
cell killing IC50 @ 96 h, CHO-ALPI cells (Cell Titre Glo) [3]: > 592 nM
cell killing IC50 @ 96 h, CHO-ALPL cells (Cell Titre Glo) [4]: > 592 nM

binding result [5]: no binding
Kd [6]: < 0.01 nM
koff [6]: < 1e-07 s⁻¹
kon [6]: 443000 M⁻¹ s⁻¹
Kd [7]: < 0.01 nM
koff [7]: < 1e-07 s⁻¹
kon [7]: 505000 M⁻¹ s⁻¹
Kd [8]: < 0.01 nM
koff [8]: < 1e-07 s⁻¹
kon [8]: 284000 M⁻¹ s⁻¹
Kd [9]: 1.22 nM
koff [9]: 0.000658 s⁻¹
kon [9]: 540000 M⁻¹ s⁻¹
B6: D10 A06-hFc (S239C), [G4S]3 linkers (Fc fusion)
chain 1: QVQLVESGGGLVQPGGSLRLSCAASGSIFSVNTMGWYRQAPGKQRDLVAVATSGGTIHYADSVKGRFTISRDNAKNTVYLQMNSLKPEDTAVYYCNLVVPYGMIAGDHDYWGQGTKVTVSSGGGGSGGGGSGGGGS[human IgG1 Fc with C220S S239C T366Y (EU numbers) not spelt out]
chain 2: QVHLVESGGGLVQAGGSLRLSCAASGRTFLSMGWFRQAPGKEREFVAAISWTGGSTGYADSVKGRFTISRESDKETMYLQMNSLKPEDTAVYYCAARGDVYYGGDDATRYKYWGQGTQVTVSSGGGGSGGGGSGGGGS[human IgG1 Fc with C220S S239C Y407T (EU numbers) not spelt out]
notes: Biparatopic knobs-into-holes heterodimer; also called #605

B7: E10-hFc (S239C)-MA-PEG4-vc-PAB-EDA-PNU159682 (Fc fusion)
chain: QVQLVESGGGLVQAGGSLRLSCAVSGRALSDYNIGWFRQAPGKEREFVARKTWDGSSTRYDDSVKGRFTVSIEDAKNTAYLQMSSLKTEDTAVYYCAAGRYSRARGWEYDYWGQGTQVTVSSGGGGSGGGGSGGGGS[human IgG1 Fc with changes not spelt out]
modifications: MA-PEG4-vc-PAB-EDA-PNU159682 on Cys 239 (S239C, EU numbering); DAR 1.98
cell killing IC50 @ 96 h, CHO-ALPP cells (Cell Titre Glo) [1]: 9.8 nM
cell killing IC50 @ 96 h, CHO-ALPPL2 cells (Cell Titre Glo) [2]: 12.3 nM
cell killing IC50 @ 96 h, CHO-ALPI cells (Cell Titre Glo) [3]: 700 nM
cell killing IC50 @ 96 h, CHO-ALPL cells (Cell Titre Glo) [4]: > 1000 nM
